From the supplement of paper PMC6531468
This is one part of the list. These are enrichments in a pooled selection; single values are uncertain. Each score is taken over the longer molecules that contain the sequence shown.

Key:
Assay in all cases: 6-mer SELEX enrichment z-score vs GST control; IMP3 is the RNA-binding protein IGF2BP3; higher = more enriched by binding
[1] = test system: IMP3 KH1-4; settings: construct: KH1-4 (164-579); SELEX round: R4
Experimental: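 SELEX-seq with GST-tagged IMP3 KH1-4 (Pro164-Lys579) and an N40 RNA pool, round 4. 6-mer z-score of sequence-tag enrichment normalised to the corresponding GST SELEX round; RNA k-mers written as DNA (T for U).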

[2] = test system: IMP3 RRM1-2; settings: construct: RRM1-2 (1-163); SELEX round: R2
Experimental: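 SELEX-seq with GST-tagged IMP3 RRM1-2 (Met1-Asn163) and an N40 RNA pool, round 2. 6-mer enrichment z-score normalised to GST SELEX. RNA written as DNA (T = U).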

[3] = target: IMP3 full-length (UniProt O00425); settings: construct: FL IMP3 (1-579); SELEX round: R4
Experimental: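 SELEX-seq with GST-tagged full-length IMP3 and an N40 RNA pool, round 4. Each 6-mer is scored as an enrichment z-score of sequence tags containing it, normalised to the matching GST SELEX round. RNA written as DNA (T = U).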

[4] = test system: IMP3 KH1-2; settings: construct: KH1-2 (164-376); SELEX round: R4
Experimental: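 SELEX-seq with GST-tagged IMP3 KH1-2 (Pro164-Phe376) and an N40 RNA pool, round 4 (stringent 300/600 mM KCl washes). 6-mer z-score of sequence-tag enrichment normalised to the corresponding GST SELEX round; RNA k-mers written as DNA (T for U).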

[5] = test system: IMP3 KH3-4; settings: construct: KH3-4 (377-579); SELEX round: R4
Experimental: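 SELEX-seq with GST-tagged IMP3 KH3-4 (Pro377-Lys579) and an N40 RNA pool, round 4. 6-mer z-score of sequence-tag enrichment normalised to the corresponding GST SELEX round; RNA k-mers written as DNA (T for U).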

UniProt O00425, sequence (O00425 whole entry): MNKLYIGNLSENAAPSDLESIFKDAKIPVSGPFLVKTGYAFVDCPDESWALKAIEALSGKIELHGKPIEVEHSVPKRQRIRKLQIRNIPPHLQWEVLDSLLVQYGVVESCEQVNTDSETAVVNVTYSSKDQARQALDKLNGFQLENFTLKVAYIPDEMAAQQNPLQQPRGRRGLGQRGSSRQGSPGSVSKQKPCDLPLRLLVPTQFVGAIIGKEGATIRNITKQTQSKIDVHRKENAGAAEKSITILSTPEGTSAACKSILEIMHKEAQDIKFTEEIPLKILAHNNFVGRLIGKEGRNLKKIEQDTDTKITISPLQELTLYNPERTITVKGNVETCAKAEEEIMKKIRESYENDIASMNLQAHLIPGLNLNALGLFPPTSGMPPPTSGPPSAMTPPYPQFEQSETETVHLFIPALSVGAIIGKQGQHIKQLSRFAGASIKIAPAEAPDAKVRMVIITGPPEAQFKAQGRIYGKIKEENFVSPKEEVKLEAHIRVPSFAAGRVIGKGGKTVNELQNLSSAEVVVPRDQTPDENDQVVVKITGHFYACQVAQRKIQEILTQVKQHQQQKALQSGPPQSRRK
IMP3 RRM1-2, sequence (chain, as listed by the source): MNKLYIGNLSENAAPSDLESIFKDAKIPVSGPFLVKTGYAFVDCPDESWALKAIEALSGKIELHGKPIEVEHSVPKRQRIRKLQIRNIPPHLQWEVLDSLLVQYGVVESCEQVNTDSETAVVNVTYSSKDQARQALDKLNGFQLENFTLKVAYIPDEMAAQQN
IMP3 KH3-4, sequence (chain, as listed by the source): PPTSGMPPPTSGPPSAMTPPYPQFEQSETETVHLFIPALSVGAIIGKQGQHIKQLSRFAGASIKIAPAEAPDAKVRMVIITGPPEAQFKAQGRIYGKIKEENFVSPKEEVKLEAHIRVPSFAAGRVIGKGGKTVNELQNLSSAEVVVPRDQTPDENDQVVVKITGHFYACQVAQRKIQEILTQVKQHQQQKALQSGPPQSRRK
IMP3 KH1-2, sequence (chain, as listed by the source): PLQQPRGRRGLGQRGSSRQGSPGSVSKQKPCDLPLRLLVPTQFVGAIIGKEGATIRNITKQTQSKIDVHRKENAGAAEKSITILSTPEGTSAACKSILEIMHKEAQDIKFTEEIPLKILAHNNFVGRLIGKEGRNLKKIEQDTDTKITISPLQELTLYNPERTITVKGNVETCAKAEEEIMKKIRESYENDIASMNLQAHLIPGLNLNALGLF
IMP3 KH1-4, sequence (chain, as listed by the source): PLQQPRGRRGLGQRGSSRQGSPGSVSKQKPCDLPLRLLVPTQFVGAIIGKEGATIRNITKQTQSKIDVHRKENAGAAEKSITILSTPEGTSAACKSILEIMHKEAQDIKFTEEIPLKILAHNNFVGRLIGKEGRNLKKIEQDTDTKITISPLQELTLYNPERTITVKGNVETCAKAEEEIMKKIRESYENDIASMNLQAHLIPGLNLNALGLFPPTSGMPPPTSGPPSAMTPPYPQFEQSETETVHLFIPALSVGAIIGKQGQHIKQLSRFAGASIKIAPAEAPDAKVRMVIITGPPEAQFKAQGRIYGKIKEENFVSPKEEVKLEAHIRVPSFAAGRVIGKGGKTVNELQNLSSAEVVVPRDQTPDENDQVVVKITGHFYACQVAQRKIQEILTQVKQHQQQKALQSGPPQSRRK

| Sequence | 6-mer SELEX enrichment z-score [1] | 6-mer SELEX enrichment z-score [2] | 6-mer SELEX enrichment z-score [3] | 6-mer SELEX enrichment z-score [4] | 6-mer SELEX enrichment z-score [5] |
| --- | --- | --- | --- | --- | --- |
| ACGCAA | -0.127 | 0.083 | 0.179 | 0.085 | -0.165 |
| CCTGGT | -0.392 | 0.105 | -0.132 | -0.298 | -0.384 |
| AACTTG | -0.85 | -0.474 | -0.814 | -0.877 | -0.757 |
| CCTAAT | -0.267 | -0.443 | -0.778 | -0.287 | -0.357 |
| CTATGG | 0.189 | 0.235 | 0.052 | 0.144 | 0.26 |
| TTAGTG | 0.186 | 0.288 | -0.044 | 0.079 | 0.326 |
| TGACAG | 0.48 | -0.358 | 0.25 | 0.397 | 0.314 |
| TTCAGA | 0.394 | 0.731 | 0.597 | 0.468 | 0.455 |
| CAGTTC | 0.518 | 0.637 | 0.691 | 0.43 | 0.228 |
| TGTCAT | 0.368 | 0.533 | 0.443 | 0.188 | 0.328 |
| CTGGAA | -0.122 | -0.654 | -0.516 | -0.218 | -0.264 |
| GGACCG | -0.203 | -0.881 | 0.007 | -0.271 | -0.581 |
| AACAGT | 0.444 | 0.262 | 0.827 | 0.363 | 0.288 |
| AGACAC | 0.238 | 0.949 | 0.351 | 0.306 | -0.032 |
| CGTCGA | -1.02 | 0.045 | -0.162 | -0.927 | -0.866 |
| GATTTT | 0.748 | 0.154 | 0.09 | 0.694 | 1.19 |
| TTTGAC | -0.011 | -0.278 | -0.486 | -0.133 | -0.017 |
| ACGGAT | 0.328 | -0.561 | -0.01 | 0.129 | 0.435 |
| CAGAAA | -0.107 | -0.597 | -0.362 | 0.103 | 0.239 |
| ACAGCG | -2.05 | 0.119 | -0.221 | -1.84 | -1.67 |
| GGTAGG | 0.206 | 0.289 | 0.289 | 0.323 | 0.353 |
| ATAGTT | 0.273 | 0.364 | 0.122 | 0.168 | 0.419 |
| CCACAC | 0.343 | 1.93 | 0.742 | 0.48 | -0.983 |
| GTAAAC | -0.846 | -0.657 | -0.976 | -0.799 | -0.618 |
| TCCTTC | 0.876 | 0.365 | 0.118 | 0.797 | 0.287 |
| AAGAAA | 0.271 | -2.37 | -1.6 | 0.122 | 1.65 |
| GGTTCT | -0.064 | 0.458 | 0.079 | 0.024 | 0.177 |
| TAATTT | 1.26 | 0.137 | 0.278 | 1.38 | 2.16 |

| Sequence | 6-mer SELEX enrichment z-score [1] | 6-mer SELEX enrichment z-score [2] | 6-mer SELEX enrichment z-score [3] | 6-mer SELEX enrichment z-score [4] | 6-mer SELEX enrichment z-score [5] |
| --- | --- | --- | --- | --- | --- |
| TCTAGC | -0.542 | 0.225 | -0.333 | -0.538 | -0.469 |
| TTCCTC | 0.999 | 0.156 | 0.092 | 0.908 | 0.263 |
| TTATCA | 1.26 | 0.996 | 0.923 | 1.36 | 1.34 |
| CGGGAT | -0.184 | -0.14 | 0.098 | -0.134 | -0.049 |
| GCCGCG | -0.2 | -0.258 | 0.358 | -0.009 | -0.259 |
| CGGAGT | -0.411 | -0.226 | -0.116 | -0.355 | -0.327 |
| ATCACT | 1.39 | 2.21 | 1.41 | 1.31 | 0.861 |
| GAGACC | -1.33 | -1.33 | -1.26 | -1.16 | -1.45 |
| TCTACA | 0.753 | 0.76 | 0.462 | 0.726 | 0.38 |
| GTAGGT | -0.103 | 0.304 | 0.081 | -0.019 | 0.141 |
| GGCTAC | 0.031 | 0.473 | 0.55 | 0.1 | 0.238 |
| TACAGC | 0.21 | 0.403 | 0.561 | 0.254 | 0.001 |
| CATATG | 1.38 | 0.673 | 0.801 | 1.07 | 1.33 |
| TTAGGC | 0.321 | 0.511 | 0.333 | 0.22 | 0.532 |
| ATCGCC | 0.387 | -0.234 | 0.218 | 0.173 | -0.317 |
| CAAATG | -0.305 | -0.664 | -0.747 | -0.495 | -0.163 |
| CGGCAT | 1.55 | 0.557 | 2.56 | 0.867 | 0.838 |
| TAGATC | 0.313 | 0.113 | 0.117 | 0.239 | 0.399 |
| GCGGAA | -0.764 | -0.575 | -0.304 | -0.7 | -0.549 |
| CGGCTT | 0.382 | 0.499 | 0.587 | 0.315 | 0.767 |
| ACGATT | 0.622 | -0.615 | -0.396 | 0.355 | 0.591 |
| TAAGCA | 0.221 | 0.293 | 0.118 | 0.117 | 0.306 |
| CTTTAA | 0.743 | -0.259 | -0.296 | 0.735 | 1.04 |
| TCTCAT | 0.497 | 0.894 | 0.941 | 0.615 | 0.359 |
| ACAGTA | 0.69 | 0.354 | 0.997 | 0.715 | 0.532 |
| TGCCCC | -0.707 | -0.532 | -0.891 | -0.386 | -1.36 |
| GCGAAT | -0.51 | -0.431 | -0.277 | -0.525 | -0.294 |
